Some of the results follow.
biological target: T1, OsWOX13 (Oryza sativa, UniProt Q5QMM3 1-267); experiment: protein-binding microarray (RPBM); PBS, 2% BSA, 51.3 ng/ul salmon testes DNA, 50 uM zinc acetate, 200 nM TF, 25 C, 1 h; high values mean tight binding; conditions: protein: recombinant; tags: N-terminal polyhistidine and DsRed monomer fusion (pET32a); label: CyDye5-dUTP incorporated in the synthesized complementary strand; 3' TTTTT single-stranded linker to array surface; dsDNA, one strand shown
T1 sequence: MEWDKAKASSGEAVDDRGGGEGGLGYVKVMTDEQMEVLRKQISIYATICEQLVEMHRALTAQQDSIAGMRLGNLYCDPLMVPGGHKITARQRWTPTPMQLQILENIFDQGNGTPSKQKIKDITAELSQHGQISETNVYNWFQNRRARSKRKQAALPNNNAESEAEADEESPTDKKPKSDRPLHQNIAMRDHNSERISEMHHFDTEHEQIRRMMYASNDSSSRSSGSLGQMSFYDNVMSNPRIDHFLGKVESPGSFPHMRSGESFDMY
In short: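 Per-feature fluorescence intensity (arbitrary units), read on an Axon 4000B scanner, is the binding signal. Transcription factors carrying an N-terminal polyhistidine tag and DsRed fusion were expressed in E. coli BL21-CodonPlus and purified on Ni–NTA. A custom Agilent array, made double-stranded by primer extension with Cy5-dUTP and blocked with 2% BSA, was incubated with 200 nM protein in PBS, 2% BSA, salmon testes DNA and 50 µM zinc acetate at 25 °C for 1 h and then washed.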

Sequence	binding signal
ACACTAATTTAGAGTATTAAATATAGACTACTTACAAAACCGGAGTCACCTAGTGCAG	10700 fluorescence intensity (a.u.)
TCGAATTTGATCAGTAGCTTAATTATACTTTAGTACTACCCGGAGTCACCTAGTGCAG	10600 fluorescence intensity (a.u.)
TCACAAGATAGATTAATATGAAAATATCACTCAACAAACACGGAGTCACCTAGTGCAG	6970 fluorescence intensity (a.u.)
CATATACAATCATATAGTTGATTTTGAAAGTTATATTATTCGGAGTCACCTAGTGCAG	6510 fluorescence intensity (a.u.)
CCAGCCAATCACGAGCGGAAGCCGGCACCGTCCCCTTTTCCGGAGTCACCTAGTGCAG	16000 fluorescence intensity (a.u.)
TTCTTTGTTTGGTGCATGATTAATTAAGTATATGCTAGTTCGGAGTCACCTAGTGCAG	8370 fluorescence intensity (a.u.)
CACATAATTTTATGGACTAATCTGCAAAATTTCTTCCACACGGAGTCACCTAGTGCAG	15800 fluorescence intensity (a.u.)
CTAGCAATCACCATGTTACTGCTAGCTCTTGTTACTGCATCGGAGTCACCTAGTGCAG	11700 fluorescence intensity (a.u.)
GCTTGTGATAGAATCAATTTACCCTTGCATTTATGGCTAACGGAGTCACCTAGTGCAG	13600 fluorescence intensity (a.u.)
CACACCTGTCACCGTCCCATCCCCACCTCGGCCACAGAGACGGAGTCACCTAGTGCAG	3160 fluorescence intensity (a.u.)
TCTTAGATTTAACATTTAACTATTTATCACCAATGTATCACGGAGTCACCTAGTGCAG	9580 fluorescence intensity (a.u.)
TTTTAATTAAACCATATAACAATAATAATATTAAAATAGACGGAGTCACCTAGTGCAG	9160 fluorescence intensity (a.u.)
ATGTCCTTGCTAAACGAGTCTAATTAGATGACAAGAAGAGCGGAGTCACCTAGTGCAG	5560 fluorescence intensity (a.u.)
AGAATAATTGCACTCCTAGAAGATTAAAGACAGATTAGCACGGAGTCACCTAGTGCAG	11900 fluorescence intensity (a.u.)
GTTTAAATGTGATGATTATTAGTGGATGATGATGTGGCATCGGAGTCACCTAGTGCAG	34400 fluorescence intensity (a.u.)
CCTGTTACAATTTTAATCAGTTCTTTATTATTCCTCTCCACGGAGTCACCTAGTGCAG	4780 fluorescence intensity (a.u.)
TATTAATTGGGGTGATTCATGACAACGATGAGATATTAATCGGAGTCACCTAGTGCAG	10500 fluorescence intensity (a.u.)
CAATTAATCATGTGTTAATGGCTCACCTCGTTTTACGTATCGGAGTCACCTAGTGCAG	19700 fluorescence intensity (a.u.)
GAGAAATGGTAATTTAGCATGCTTATATATTGAGGTTTAGCGGAGTCACCTAGTGCAG	8510 fluorescence intensity (a.u.)
TAGGAAACGTAATTTTGTTAAGAAAATGTTTTGGCTTCTCCGGAGTCACCTAGTGCAG	3600 fluorescence intensity (a.u.)
GGGAATTAAATGGATCCAGTACAAAGTTCATTTAAACGAGCGGAGTCACCTAGTGCAG	8970 fluorescence intensity (a.u.)

Sequence	binding signal
TTTAAATGAAAGATGATTGATGGGGCAATTAGTACTCTAGCGGAGTCACCTAGTGCAG	43400 fluorescence intensity (a.u.)
CATGCTTATTGTCACTCAATTTACCTACCAAGATATAGGTCGGAGTCACCTAGTGCAG	5410 fluorescence intensity (a.u.)
AGTGTTGTACATGATTACTATAAATTGCAAAATATAACATCGGAGTCACCTAGTGCAG	4880 fluorescence intensity (a.u.)
AACCTAAACTAATTACCCACAAACGGCCTCACATAGGTTTCGGAGTCACCTAGTGCAG	7980 fluorescence intensity (a.u.)
TTGATTTTGCTAAATTACCAATTTCAAATAGACATTGCACCGGAGTCACCTAGTGCAG	49800 fluorescence intensity (a.u.)
CCTTGACTTGGATTGCCTTCCCTTTGTGGATGACATGCACCGGAGTCACCTAGTGCAG	6180 fluorescence intensity (a.u.)
GGATGATTTGGTCAGTAGCTTGAGGGATTTGAATTCTTGGCGGAGTCACCTAGTGCAG	31000 fluorescence intensity (a.u.)
TTTGCATAACAGGAATTTAATTCCAAAGGAAAATTTGTGCCGGAGTCACCTAGTGCAG	4760 fluorescence intensity (a.u.)
GACCATTGACATGTGGGATGAATTTTAGACTAGGCGATAACGGAGTCACCTAGTGCAG	3290 fluorescence intensity (a.u.)
AATTGATGATGAAATAATGAATGATATTTGACAAGGAGCTCGGAGTCACCTAGTGCAG	17300 fluorescence intensity (a.u.)
ACCCAATCTTCGGCACTAATCAACCGGAGGACGACGAACCCGGAGTCACCTAGTGCAG	6630 fluorescence intensity (a.u.)
GTTCCAGAGATCAATTAACGTAGCATAGTGAGATATACAGCGGAGTCACCTAGTGCAG	4420 fluorescence intensity (a.u.)
GTTTGATTTTGTGATGCGTCTTCGGTTAGACTTTGAACCTCGGAGTCACCTAGTGCAG	17600 fluorescence intensity (a.u.)
TAAATTGAATTCTCTCAATACCTCTAGGATTGTCGTGGCTCGGAGTCACCTAGTGCAG	16700 fluorescence intensity (a.u.)
CCAAAATTAACCAGTACACCATACGTGGTTTTCTTCATCACGGAGTCACCTAGTGCAG	9160 fluorescence intensity (a.u.)
CCCTCAATCAGCTGGTCGGCTGGTCGCACACACCACGTTCCGGAGTCACCTAGTGCAG	11500 fluorescence intensity (a.u.)
AGAGCTGATCTGATTAGCACCGATCACAGGTTGGTCCGCACGGAGTCACCTAGTGCAG	19000 fluorescence intensity (a.u.)
TTATGATTTCAACATGATAGTTGGGTAGTGATGGTCCACTCGGAGTCACCTAGTGCAG	6460 fluorescence intensity (a.u.)
GAGTAAATTACAATCCATACTATACTATGTATTCTTAGAACGGAGTCACCTAGTGCAG	11900 fluorescence intensity (a.u.)
CCCCAATGATAATTATGTTCGATTTTAAAATCTCAATGACCGGAGTCACCTAGTGCAG	22200 fluorescence intensity (a.u.)
TGTAAATTACGAGACGAATTTATCAAGCCTAATTAATCTGCGGAGTCACCTAGTGCAG	17500 fluorescence intensity (a.u.)

From paper PMC7819943, “Rice protein-binding microarrays: a tool to detect cis-acting elements near promoter regions in rice”
